This is an account of results in the supplement of paper PMC11741623.

The other results are listed elsewhere or left out. Interaction screen of human proteins with wild-type SARS-CoV-2 proteins by split-DHFR complementation in yeast, 1 µg/mL methotrexate. Value = fitness of the pair (three or more lineages) minus that of the viral protein without a human partner, on a scale set by negative (0) and fused positive (1) controls, mean of up to three cultures; higher = more likely to interact. Active = false discovery rate below 0.05 (one-sided t-test) in at least one culture. Nearly all pairs are not hits, and differences among them are mostly noise (correlation between cultures about 0.3); most hits were seen in one culture only. Human sequences are the Swiss-Prot entries looked up by gene name; the clone may be another isoform. NSP2 values were corrected by the authors for a growth advantage. Listed are human proteins with a hit and a random twelfth of the others.

First the molecules themselves.
B1: AMY2A, P04746 (protein)
chain: MKFFLLLFTIGFCWAQYSPNTQQGRTSIVHLFEWRWVDIALECERYLAPKGFGGVQVSPPNENVAIYNPFRPWWERYQPVSYKLCTRSGNEDEFRNMVTRCNNVGVRIYVDAVINHMCGNAVSAGTSSTCGSYFNPGSRDFPAVPYSGWDFNDGKCKTGSGDIENYNDATQVRDCRLTGLLDLALEKDYVRSKIAEYMNHLIDIGVAGFRLDASKHMWPGDIKAILDKLHNLNSNWFPAGSKPFIYQEVIDLGGEPIKSSDYFGNGRVTEFKYGAKLGTVIRKWNGEKMSYLKNWGEGWGFVPSDRALVFVDNHDNQRGHGAGGASILTFWDARLYKMAVGFMLAHPYGFTRVMSSYRWPRQFQNGNDVNDWVGPPNNNGVIKEVTINPDTTCGNDWVCEHRWRQIRNMVIFRNVVDGQPFTNWYDNGSNQVAFGRGNRGFIVFNNDDWSFSLTLQTGLPAGTYCDVISGDKINGNCTGIKIYVSDDGKAHFSISNSAEDPFIAIHAESKL
B2: RIMKLB, Q9ULI2 (protein)
chain: MCSSVAAKLWFLTDRRIREDYPQKEILRALKAKCCEEELDFRAVVMDEVVLTIEQGNLGLRINGELITAYPQVVVVRVPTPWVQSDSDITVLRHLEKMGCRLMNRPQAILNCVNKFWTFQELAGHGVPLPDTFSYGGHENFAKMIDEAEVLEFPMVVKNTRGHRGKAVFLARDKHHLADLSHLIRHEAPYLFQKYVKESHGRDVRVIVVGGRVVGTMLRCSTDGRMQSNCSLGGVGMMCSLSEQGKQLAIQVSNILGMDVCGIDLLMKDDGSFCVCEANANVGFIAFDKACNLDVAGIIADYAASLLPSGRLTRRMSLLSVVSTASETSEPELGPPASTAVDNMSASSSSVDSDPESTERELLTKLPGGLFNMNQLLANEIKLLVD
B3: C16orf48, Q9H0I2 (protein)
chain: MCEGPSRISGPIPPDPTLCPDNYRRPTSAQGRLEGNALKLDLLTSDRALDTTAPRGPCIGPGAGEILERGQRGVGDVLLQLEGISLGPGASLKRKDPKDHEKENLRRIREIQKRFREQERSREQGQPRPLKALWRSPKYDKVESRVKAQLQEPGPASGTESAHFLRAHSRCGPGLPPPHVSSPQPTPPGPEAKEPGLGVDFIRHNARAAKRAPRRHSCSLQVLAQVLEQQRQAQEHYNATQKGHVPHYLLERRDLWRREAEARKQSQPDPAMPPGHTRMPENQRLETLTKLLQSQSQLLRELVLLPAGADSLRAQSHRAELDRKLVQVEEAIKIFSRPKVFVKMDD
B4: FAM125B, Q9H7P6 (protein)
chain: MRSCFCVRRSRDPPPPQPPPPPPQRGTDQSTMPEVKDLSEALPETSMDPITGVGVVASRNRAPTGYDVVAQTADGVDADLWKDGLFKSKVTRYLCFTRSFSKENSHLGNVLVDMKLIDIKDTLPVGFIPIQETVDTQEVAFRKKRLCIKFIPRDSTEAAICDIRIMGRTKQAPPQYTFIGELNSMGIWYRMGRVPRNHDSSQPTTPSQSSAASTPAPNLPRHISLTLPATFRGRNSTRTDYEYQHSNLYAISAMDGVPFMISEKFSCVPESMQPFDLLGITIKSLAEIEKEYEYSFRTEQSAAARLPPSPTRCQQIPQS

The target of one assay is SARS-CoV-2 M. Description: yeast fitness gain over the viral ORF with no human partner (scaled fitness); higher = more likely to interact. The procedure:
(§1)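 Split mouse DHFR complementation in pooled diploid yeast: human ORFeome clones carry one fragment and viral ORFs the other; barcoded lineages compete in 1 µg/mL methotrexate and fitness is read by barcode sequencing in up to three cultures.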
For the molecule B1, the yeast fitness gain is inactive: 0.0597.
In the case of B2, the yeast fitness gain was inactive: 0.00425.
The same measure, in the same setting: the value for B3 was inactive: 0.0705; that for B4 was inactive: -0.0497.

A further assay concerns the target SARS-CoV-2 NSP1. Described as above. As to the method:
as §1
As for B1, the yeast fitness gain is inactive: 0.0862.
On the same count and under the same terms, then B2, with inactive: 0.113; and B3, with inactive: -0.00117; and B4, with inactive: -0.0465.

The target in another assay is SARS-CoV-2 NSP10. Described as above. The procedure:
as §1
In the case of B1, the yeast fitness gain is inactive: 0.042.
In the case of B2, the yeast fitness gain was inactive: -0.00707.
As for B3, the yeast fitness gain was inactive: -0.00548.
Turning to B4, the yeast fitness gain was inactive: 0.0326.

The target in the next assay is SARS-CoV-2 NSP12. Described as above. The procedure:
as §1
On to B1, for which the yeast fitness gain was inactive: 0.0676.
With B2, the yeast fitness gain was inactive: 0.0226.
Turning to B3, the yeast fitness gain was inactive: -0.0253.
On to B4, for which the yeast fitness gain was inactive: -0.0372.

For another assay, the target named is SARS-CoV-2 NSP13. Described as above. As to the method:
as §1
Take B1: the yeast fitness gain is inactive: 0.106.
Turning to B2, the yeast fitness gain was inactive: -0.00558.
On to B3, for which the yeast fitness gain was inactive: -0.000632.
On to B4, for which the yeast fitness gain was inactive: -0.0533.

In another assay the target is SARS-CoV-2 NSP14. The assay is described as above. As to the method:
as §1
As to B1, the yeast fitness gain was inactive: 0.114.
On to B3, for which the yeast fitness gain is inactive: 0.099.

The next assay concerns the target SARS-CoV-2 NSP15. The assay is described as above. The procedure: as §1
For B1, the yeast fitness gain was inactive: -0.475.
The same measure, in the same setting: the value for B3 was inactive: 0.0324.

Another assay addresses SARS-CoV-2 NSP16. The description is as above. The procedure:
as §1
As for B1, the yeast fitness gain is inactive: 0.102.
Take B2: the yeast fitness gain is inactive: 0.00815.
As to B3, the yeast fitness gain was inactive: 0.0167.
As for B4, the yeast fitness gain was inactive: 0.103.

Another assay addresses SARS-CoV-2 NSP2. The assay is described as above. As to the method: as §1
For B1, the yeast fitness gain is inactive: -0.0695.
For the molecule B2, the yeast fitness gain was inactive: -0.243.
Same read-out and setting: the value for B3 was inactive: -0.162; that for B4 was inactive: 0.00131.

Another assay concerns the target SARS-CoV-2 NSP4. The description is as above. The procedure: as §1
For B1, the yeast fitness gain is inactive: 0.0682.
Consider B3, for which the yeast fitness gain was inactive: -0.0705.

Another assay concerns the target SARS-CoV-2 NSP5. The assay is described as above. The procedure: as §1
With B1, the yeast fitness gain was inactive: 0.026.
On to B2, for which the yeast fitness gain was inactive: 0.0397.
Same read-out and setting: then B3, with inactive: -0.00229; and B4, with inactive: -0.0556.

The target of the next assay is SARS-CoV-2 NSP6. The description is as above. As to the method:
as §1
B1: the yeast fitness gain is inactive: 0.0252.
Regarding B2, the yeast fitness gain is inactive: -9.4e-05.
Turning to B3, the yeast fitness gain was inactive: -0.0276.
As for B4, the yeast fitness gain was inactive: 0.0156.

A further assay addresses SARS-CoV-2 NSP7. The description is as above. As to the method:
as §1
Turning to B1, the yeast fitness gain is inactive: 0.0212.
In the case of B2, the yeast fitness gain is inactive: -0.126.
Same read-out and setting: then B3, with inactive: 0.0996.

For a further assay, the target named is SARS-CoV-2 NSP8. Described as above. As to the method:
as §1
Regarding B1, the yeast fitness gain was inactive: 0.0969.
On the same count and under the same terms, then B3, with inactive: -0.0673.

Another assay deals with SARS-CoV-2 NSP9. The assay is described as above. The procedure: as §1
In the case of B1, the yeast fitness gain is inactive: 0.0778.
On the same count and under the same terms, then B3, with inactive: -0.108.

The next assay concerns the target SARS-CoV-2 ORF10. Described as above. The procedure: as §1
Turning to B1, the yeast fitness gain was inactive: 0.0143.
As for B3, the yeast fitness gain was inactive: 0.032.
Consider B4, for which the yeast fitness gain is inactive: -0.0763.

Another assay concerns the target SARS-CoV-2 ORF3A. Described as above. As to the method:
as §1
For B1, the yeast fitness gain was inactive: -0.0503.
Still for that read-out and setting: then B3, with inactive: 0.0696.

The next assay concerns the target SARS-CoV-2 ORF3B. The description is as above. As to the method:
as §1
In the case of B1, the yeast fitness gain is inactive: 0.0706.
With B2, the yeast fitness gain is inactive: -0.00509.
As to B3, the yeast fitness gain is inactive: -0.0561.
As to B4, the yeast fitness gain is inactive: 0.0185.

The next assay has as its target SARS-CoV-2 ORF6. Described as above. As to the method: as §1
In the case of B1, the yeast fitness gain was inactive: -0.0118.
With B2, the yeast fitness gain is inactive: -0.0451.
Consider B3, for which the yeast fitness gain was inactive: 0.0623.
In the case of B4, the yeast fitness gain is inactive: -0.0196.

A further assay has as its target SARS-CoV-2 ORF7A. The description is as above. As to the method: as §1
As for B1, the yeast fitness gain was inactive: 0.0569.
Same read-out and setting: then B3, with inactive: 0.0104; and B4, with inactive: -0.0494.

The target of a further assay is SARS-CoV-2 ORF7B. The assay is described as above. The procedure:
as §1
For B1, the yeast fitness gain is inactive: 0.0842.
Regarding B3, the yeast fitness gain was inactive: -0.091.
The same measure, in the same setting: the value for B4 was inactive: 0.0158.

The next assay has as its target SARS-CoV-2 ORF8. The description is as above. As to the method:
as §1
For the molecule B1, the yeast fitness gain was inactive: -0.0134.
Take B2: the yeast fitness gain is inactive: -0.131.
Take B3: the yeast fitness gain was inactive: 0.0231.
On the same count and under the same terms, then B4, with inactive: -0.145.

For another assay, the target named is SARS-CoV-2 ORF9B. The assay is described as above. As to the method:
as §1
With B1, the yeast fitness gain was inactive: 0.0464.
Regarding B2, the yeast fitness gain was inactive: -0.0268.
B3: the yeast fitness gain is inactive: 0.0323.
Same read-out and setting: then B4, with inactive: -0.0165.

A further assay concerns the target SARS-CoV-2 ORF9Bwu (the 73-codon ORF). The assay is described as above. As to the method:
as §1
As for B1, the yeast fitness gain is inactive: 0.0696.
The same measure, in the same setting: then B3, with inactive: -0.0275.

The next assay deals with SARS-CoV-2 S. The assay is described as above. The procedure: as §1
On to B1, for which the yeast fitness gain is inactive: -0.116.
Turning to B2, the yeast fitness gain is inactive: -0.111.
Same read-out and setting: then B3, with inactive: 0.0674; and B4, with inactive: 0.0508.

The next assay deals with SARS-CoV-2 N. The description is as above. As to the method:
as §1
Regarding B3, the yeast fitness gain is inactive: -0.127.
